The structures appear in SMILES notation. Out of some 43,000 compounds screened, about 200 (0.47%) were called active. Inconclusive results (about 12%) are left out. Calls come from the whole dose curve; as a rule, active = well fitted cell-killing curve with a large enough effect; inconclusive = small, poorly fitted or top-dose-only effect, or effect the other way; inactive = flat fitted curve, though single readings scatter. Some of the results follow.
% is set by controls: 0 for no effect and ±100 for the full control effect.

A short description of the assay: Cell viability qHTS assay in S16 Pmp22-F2sN cells. Note: nearly all actives have a fitted effect of over 65% in size. The following applies: S16 Pmp22-F2sN Schwann cells (luciferase reporters placed in the Pmp22 gene) viability, CellTiter-Glo, 24 h; series mostly up to 57.5 µM; activity change, negative = cytotoxicity: at the top concentration. The gist of the method: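 Seed 500-1,000 S16 Pmp22-F2sN cells per well in phenol-red-free DMEM with 10% heat-inactivated FBS; pin-add 23 nL compound; incubate 24 h at 37C; add CellTiter-Glo, wait 15 min protected from light; read luminescence.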
Background: qHTS replaces the single test concentration by a dilution series.
Consider `O=C(COc1ccc(Cl)cc1Cl)Nc1ccc(C(=O)OC2CCCCC2)cc1`, for which the “activity change, negative = cytotoxicity” value is inactive: 1.2%.
Turning to `Cn1nc(C(=O)Nc2cccc(C(F)(F)F)c2)c2c1-c1ccccc1S(=O)(=O)C2`, the “activity change, negative = cytotoxicity” value was inactive: -0.832%.
On to `CCCN(CCC)S(=O)(=O)c1ccc(C(=O)N2CCn3c4c(c5cc(C)ccc53)CCCC42)cc1` (stereo unspecified), for which the “activity change, negative = cytotoxicity” value was inactive: -15.2%.
On to `Cc1ccc(S(=O)(=O)c2cn(CC(=O)Nc3ccccc3)c3cc4c(cc3c2=O)OCO4)cc1`, for which the “activity change, negative = cytotoxicity” value is inactive: -8.36%.
For `Cc1ccc(-c2nc(CS(=O)CC(=O)O)c(C)o2)cc1` (stereo unspecified), the “activity change, negative = cytotoxicity” value was inactive: 12.3%.
`CC(=O)c1cc(-c2ccccc2)n(CC(=O)Nc2ccc(C)cc2C)c1C`: the “activity change, negative = cytotoxicity” value was inactive: -22.2%.
For `Cc1cccc(N2CCN(C(=O)c3ccc4c(c3)CCN4S(=O)(=O)c3ccccc3)CC2)c1C` the value was inactive: 0.549%; for `CCc1ccc(Nc2nc3ccccc3c3nnc(C)n23)cc1`, inactive: -9.26%.
Consider `CCOc1ccccc1NC(=O)NC(CC)c1c(-n2cccc2)sc2c1CCN(C)C2` (stereo unspecified), for which the “activity change, negative = cytotoxicity” value was inactive: 14.7%.
For `O=C(Cn1c(=O)n(-c2ccccc2)c(=O)c2c3c(sc21)CCCC3)Nc1ccc(F)cc1` the value was inactive: 14.4%.
`COc1ccccc1N1CCN(C(=O)c2cc3c(=O)n(Cc4cccnc4)ccc3nc2C)CC1`: the “activity change, negative = cytotoxicity” value is inactive: -1.86%.
Turning to `Cc1ccccc1OCC(=O)Nc1nnc(S(=O)(=O)N(C)c2ccccc2)s1`, the “activity change, negative = cytotoxicity” value was inactive: -7.26%.
Consider `CCC1Oc2ccccc2N(CC(=O)NCc2ccc(C)cc2)C1=O` (stereo unspecified), for which the “activity change, negative = cytotoxicity” value is inactive: 5.15%.
For `CC1=C(C(=O)OC2CCCC2)C(c2cccc(Cl)c2Cl)CC(=O)N1` (stereo unspecified) the value was inactive: 22.2%; for `CCOc1ccc(-n2ccnc2SCC(=O)Nc2ccc(OC)cc2OC)cc1`, inactive: -18.7%.
Turning to `CC(=O)c1ccc(NC(=O)COc2ccccc2-c2nc(C)no2)cc1`, the “activity change, negative = cytotoxicity” value was inactive: 8.43%.
With `CCn1c2c(c(=O)n3ncc(C(=O)Nc4ccc(F)c(Cl)c4)c13)CN(Cc1ccc(OC)cc1)CC2`, the “activity change, negative = cytotoxicity” value is inactive: 1.66%.
Turning to `CC(C)CC(=O)N(Cc1ccccc1)S(=O)(=O)c1ccc2c(c1)oc(=O)n2C`, the “activity change, negative = cytotoxicity” value is inactive: -0.653%.
Next, `CCOc1ccc(C(=O)OCc2cc(=O)n3nc(C(C)C)sc3n2)cc1`: inactive: 13%; `CCN1CCN(c2ncc3c(n2)CCN(Cc2ccc(C)s2)C3)CC1`: inactive: 12%; `Cc1cccc(CCNC(=O)c2nc(-c3ccc(Cl)cc3)n3c2CCCCC3)c1`: inactive: -17%.
Regarding `COc1ccc(Br)cc1CNC(=O)c1cc2c(=O)n(C)c3ccccc3c2s1`, the “activity change, negative = cytotoxicity” value was inactive: 0.0947%.
For `N#Cc1ccc(NC(=O)COCc2cc(-c3ccc(F)cc3)on2)cc1` the value was inactive: 8.29%; for `COC(=O)c1cc2oc(C)cc2n1Cc1ccc(Cl)cc1`, inactive: 4.09%.
For `COc1cccc(NC(=O)CN2C(=O)C3(SCC(=O)N3c3cc(C)cc(C)c3)c3ccccc32)c1` (stereo unspecified) the value was inactive: -1.39%; for `Cc1ccc(CN2C(=O)N(c3ccc(C)c(Cl)c3)S(=O)(=O)c3ccccc32)cc1`, inactive: -4.8%; for `Cc1ccc(NC(=O)C2CCN(S(=O)(=O)c3c(C)noc3C)CC2)cc1C`, inactive: 18.5%.
For `CCN(CC)C(=O)C1CCN(C(=O)c2cnn(-c3ccccc3)c2-n2cccc2)CC1` the value was inactive: -0.339%; for `O=C(CSc1nccn1C1CCCC1)Nc1ccccc1`, inactive: -3.03%.
Turning to `CCOC(=O)CSc1nc2ccccc2n2c(C)nnc12`, the “activity change, negative = cytotoxicity” value is inactive: 3.22%.
In the case of `CCOc1ccc(CNC(=O)c2cnc(SC)nc2C)cc1`, the “activity change, negative = cytotoxicity” value was inactive: -18.2%.
Next, `COC(=O)c1c(-c2cccs2)csc1NC(=O)COc1ccc(C(C)C)cc1`: inactive: -0.508%.
Turning to `CCOC(=O)C1CCN(C(=O)c2nn(-c3ccc(C)cc3)c(=O)n(C)c2=O)CC1`, the “activity change, negative = cytotoxicity” value is inactive: -2.36%.
In the case of `O=C(Nc1ccc(Cl)cc1C(F)(F)F)c1cc(S(=O)(=O)NCc2ccccc2)ccc1F`, the “activity change, negative = cytotoxicity” value was inactive: -8.75%.
Next, `CCc1ccc(CNC(=O)c2ccc(CS(=O)(=O)Cc3ccccc3C)o2)cc1`: inactive: -3.02%; `Cc1cn2c(=O)c(S(=O)(=O)NCCc3ccc(Cl)cc3)c(C)nc2s1`: inactive: -0.26%.
Regarding `CC(=O)N1CCc2c(sc3c2c(=O)n(-c2ccccc2)c(=O)n3CC(=O)c2ccc(F)cc2)C1`, the “activity change, negative = cytotoxicity” value was inactive: -5.18%.
Next, `COc1cc(C(=O)Nc2nnc(CC(C)(C)C)s2)cc(OC)c1OC`: inactive: -0.217%; `CCc1ccc(NC(=O)C2CCCN2S(=O)(=O)c2cccc3nsnc23)cc1` (stereo unspecified): inactive: -18.9%.
Next, `COC(=O)c1ccc(OCC2c3cc(OC)c(OC)cc3CCN2C(=O)Cc2ccc(OC)c(OC)c2)cc1` (stereo unspecified): inactive: -1.24%; `CC(C)c1nn2c(=O)cc(COC(=O)c3ccc4c(c3)OCO4)nc2s1`: inactive: 22.5%.
For `CCOC(=O)C1CCC(CN(Cc2ccc(OC)cc2)S(=O)(=O)c2ccc(F)c(C(=O)Nc3cc(Cl)ccc3OC)c2)CC1` (stereo unspecified) the value was inactive: -5.51%; for `Cn1cc(-c2cc3n(n2)CCC(=O)N3CCCC(=O)NCc2ccccc2)c2ccccc21`, inactive: -15.7%.
As to `CCN(CC)CCNC(=O)Cn1cnc2sc(C)c(S(=O)(=O)N3CCC(C)CC3)c2c1=O`, the “activity change, negative = cytotoxicity” value was inactive: 6.82%.
`CCc1ccc2occ(CC(=O)NCc3ccccc3)c2c1`: the “activity change, negative = cytotoxicity” value was inactive: -21.4%.
In the case of `CCOc1ccccc1C(=O)Nc1cc2c(cc1C)n(C)c(=O)c(=O)n2C`, the “activity change, negative = cytotoxicity” value was inactive: 6.77%.
For `COc1ccc(-c2nc3sc(CCNC(=O)c4ccc(C(C)(C)C)cc4)c(C)n3n2)cc1` the value was inactive: 12.8%.
Next, `CCCCNc1nc2c(-c3cccc(Br)c3)nnn2c2ccccc12`: inactive: 7.55%; `Cc1cn2c(=O)cc(COC(=O)c3ccc(NC(=O)c4ccc(C(C)(C)C)cc4)cc3)nc2s1`: inactive: -3.33%.
Next, `COc1ccc(C2=Nc3ccccc3N(CC(=O)Nc3cccc(C(C)=O)c3)C(=O)C2)cc1`: inactive: -18.4%.
Regarding `CCOC(=O)c1ccc(NC(=O)C(CC)Sc2nncn3c2cc2oc(C)cc23)cc1` (stereo unspecified), the “activity change, negative = cytotoxicity” value is inactive: 0.464%.
Next, `O=C1Nc2c(c(=O)[nH]c(=O)n2-c2ccc(F)cc2)C1(NS(=O)(=O)c1ccc(Cl)cc1)C(F)(F)F` (stereo unspecified): inactive: -0.211%.
Next, `COc1cccc2c1cc1c(=O)n(CC(=O)NCCCN3CCN(C)CC3)nc(C)n12`: inactive: 18.3%.
For `CCC1=C(c2ccc(C)cc2)S(=O)(=O)N=C1N1CCC(C(=O)NCCc2cccc(OC)c2)CC1` the value was inactive: 0.138%.
Consider `COc1ccc(OCCCn2c(C)nc3cc(C)c(C)cc32)cc1`, for which the “activity change, negative = cytotoxicity” value is inactive: -7.88%.
For `Cc1ccc(NC(=O)N2CCC(CN3CCCCC3)CC2)c(Cl)c1` the value was inactive: 6.39%; for `CCn1cc(/C=C(\NC(=O)c2ccc(OC)c(OC)c2)C(=O)NCCCn2ccnc2)c2ccccc21`, inactive: 7.45%; for `CCOC(=O)c1cc(-c2ccc(OC)cc2)n(CCC(=O)NCCc2ccc(OCC)c(OCC)c2)c1C`, inactive: 0.535%.
In the case of `Cc1nc2sccn2c(=O)c1S(=O)(=O)Nc1cccc(Cl)c1C`, the “activity change, negative = cytotoxicity” value is inactive: -20.1%.
For `CN(C)c1ccc(CNC(=O)C2CCN(C(=O)c3ccc(-n4ccc5ccccc54)s3)CC2)cc1` the value was inactive: -5.97%; for `COc1cc([N+](=O)[O-])ccc1NC(=O)N1CCC2(CC1)Nc1cc(F)ccc1-n1cccc12`, inactive: -16.3%; for `CCOC(=O)c1c(-c2ccc(OC)cc2)oc2ccc(OCc3ccc(F)cc3F)cc12`, inactive: -4.03%.
Consider `CC(C)(C)OC(=O)N1CCC(c2c(C(=O)N3CCN(c4ncccn4)CC3)cnn2-c2ccc(F)cc2)CC1`, for which the “activity change, negative = cytotoxicity” value was inactive: -6.2%.
`COc1ccc(NC(=O)c2ccco2)cc1NC(=O)c1ccc(OC(C)C)cc1`: the “activity change, negative = cytotoxicity” value was inactive: -3.19%.
Next, `Cc1cc(C)cc(OC(C)C(=O)Nc2nc3c(s2)CCCC3)c1` (stereo unspecified): inactive: -15.5%.
On to `CCOc1ccc(Nc2ncnc3onc(-c4ccc(Cl)cc4)c23)cc1`, for which the “activity change, negative = cytotoxicity” value is inactive: -1.24%.
As to `COc1ccc(CCNC(=O)Cn2nc(-c3ccc(Cl)cc3)ccc2=O)cc1OC`, the “activity change, negative = cytotoxicity” value is inactive: -8.41%.
For `COc1cn(CC(=O)Nc2cccc(C)c2)c(CN2CCCCC2)cc1=O` the value was inactive: 0.312%; for `COc1ccc(Oc2ncnc3c2oc2ccccc23)cc1`, inactive: -2.17%; for `CCOC(=O)c1ccc(NC(=O)C2CCCN(c3cnccn3)C2)cc1` (stereo unspecified), inactive: 7.24%.
In the case of `CC(=O)N1c2ccccc2CC1C(=O)N1CCN(c2ccccc2F)CC1` (stereo unspecified), the “activity change, negative = cytotoxicity” value was inactive: -27.3%.
As for `CCOC(=O)C1=C(CNCc2ccc(Cl)cc2)NC(=O)NC1c1ccccc1` (stereo unspecified), the “activity change, negative = cytotoxicity” value is inactive: -0.866%.
Next, `COc1cccc(/C=C(\C#N)c2nc3ccccc3c(=O)[nH]2)c1OC`: inactive: -2.26%; `COc1cc(NC(=O)Cn2cc(S(=O)(=O)N3CCC(C)CC3)c3ccccc3c2=O)cc(OC)c1OC`: inactive: -17%; `CCCC(C(=O)Nc1cc(C)c(Cl)cc1OC)N1Cc2ccccc2C1=O` (stereo unspecified): inactive: -21.2%.
Next, `COc1cccc(N2CCN(C(=O)Cn3ncc4c3-c3ccccc3OC4)CC2)c1`: inactive: 23.7%; `CCOc1ccc(Nc2c(S(=O)(=O)c3ccccc3)cnc3ccc(CC)cc23)cc1`: inactive: -12.9%.
For `Cc1ccc(C(=O)c2cn(CC(=O)Nc3ccc4c(c3)OCCO4)c3nc(C)ccc3c2=O)cc1` the value was inactive: -11.4%; for `CC(C)CCNC(=O)c1ccc(NC(=O)N2CCCCc3ccccc32)cc1`, inactive: 4.7%; for `O=C(CSc1nc2ccccc2n1Cc1ccccc1)NCc1ccccc1`, inactive: -20.2%.
On to `CC(C)CC(NC(=O)C1CCC(C)CC1)C(=O)OCC(=O)c1ccc(Cl)cc1` (stereo unspecified), for which the “activity change, negative = cytotoxicity” value is inactive: 5.54%.
For `CC(NC(=O)C1CCN(C(=O)N2CCOc3ccccc32)CC1)c1ccccc1` (stereo unspecified), the “activity change, negative = cytotoxicity” value is inactive: 6.49%.
For `Cc1cccc(NC(=O)CCS(=O)(=O)c2cc(Br)cc3c2N(C(=O)C2CC2)CC3)c1C` the value was inactive: -1.42%.
As for `CC1=C(C(=O)Nc2cccnc2)C(c2ccc(F)cc2)n2nc(SCc3ccccc3)nc2N1` (stereo unspecified), the “activity change, negative = cytotoxicity” value is inactive: 18.7%.
Next, `CCCNC(=O)Cn1nc(C)c2c(C)n(-c3ccccc3)nc2c1=O`: inactive: 13.5%; `CC1CCN(S(=O)(=O)c2cccc(C(=O)N(C)C3(C)CCS(=O)(=O)C3)c2)CC1` (stereo unspecified): inactive: -1.15%; `CCCCNC(=O)CSc1nc2ccccc2nc1Cc1ccccc1`: inactive: 28.5%.
For `CCc1nn(CCCC(=O)NCc2ccc(OC)c(OC)c2)c(=O)c2cc3occc3n12` the value was inactive: 7.15%; for `COC(=O)C1CCN(c2csc3ccc(C)cc3c2=O)CC1`, inactive: 15.8%; for `CCN(CCCNC(=O)c1ccc(Sc2ccc(Cl)cc2)c(NC(C)=O)c1)c1cccc(C)c1`, inactive: -2.69%.
As to `c1ccc(N2CCN(c3ncnc4c3nc3n4CCCCC3)CC2)cc1`, the “activity change, negative = cytotoxicity” value is inactive: -11.5%.
For `Cc1ccc(C)c(NC(=O)CN(Cc2ccccc2)S(=O)(=O)c2ccc3nc(C)sc3c2)c1`, the “activity change, negative = cytotoxicity” value was inactive: -0.95%.
Consider `CN1c2ccccc2-c2nc(SCC(=O)Nc3ccccc3)ncc2S1(=O)=O`, for which the “activity change, negative = cytotoxicity” value is inactive: -7.98%.
For `O=C(CSc1oc(-c2ccco2)nc1S(=O)(=O)c1ccc(Br)cc1)c1ccc(Cl)cc1` the value was inactive: -4.34%; for `COc1cc(C2Oc3nc(SC)nnc3-c3ccccc3N2C(C)=O)cc(Cl)c1OC` (stereo unspecified), inactive: -2.1%.
`Cc1cc(Br)ccc1NC(=O)c1sc2ncn(Cc3ccccc3Cl)c(=O)c2c1C`: the “activity change, negative = cytotoxicity” value is inactive: -12.5%.

The record behind these values is PubChem BioAssay AID1508642 (National Center for Advancing Translational Sciences (NCATS), 2021).
